# By IC50 is meant the dose at which the fit gives 50% viability; where the fit passes the top or lowest dose, that dose stands as a limit. AUC is the area under the same curve over the 256-fold range up to the top dose, as a fraction; values near 1 show little effect. For part of these data: An inferred top dose was calculated from the reported fits.
# Columns and labels:
# Assay in all cases: Viability of human cancer cell lines after 72 h of drug (GDSC screen)
# PD-173074 = compound: CCN(CC)CCCCNc1ncc2cc(-c3cc(OC)cc(OC)c3)c(NC(=O)NC(C)(C)C)nc2n1 [PD-173074]; conditions: top dose 2 µM; top dose inferred
# Method: (§1)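 Human cancer cell lines in 384-well plates, medium with 10% serum, drug for 72 h over a 256-fold dose range (nine 2-fold or five 4-fold steps up to the top dose). Adherent lines were fixed and stained with the nucleic acid dye Syto60, suspension lines read with resazurin; signal relative to control wells, capped at 0 and 100%. One two-parameter sigmoid per drug and line, fitted in a mixed model over all curves with the slope shared within a line.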
# TGX221 = compound: Cc1cc(C(C)Nc2ccccc2)c2nc(N3CCOCC3)cc(=O)n2c1 [TGX221]; conditions: top dose 10 µM
# Method: as §1
# Lapatinib = compound: CS(=O)(=O)CCNCc1ccc(-c2ccc3ncnc(Nc4ccc(OCc5cccc(F)c5)c(Cl)c4)c3c2)o1 [Lapatinib]; conditions: top dose 2 µM
# Method: as §1
# SB590885 = compound: CN(C)CCOc1ccc(-c2nc(-c3ccncc3)c(-c3ccc4c(c3)CC/C4=N\O)[nH]2)cc1 [SB590885]; conditions: top dose 5 µM; top dose inferred
# Method: as §1
Cell Line,AUC (PD-173074),IC50 (PD-173074) [µM],AUC (TGX221),IC50 (TGX221) [µM],AUC (Lapatinib),IC50 (Lapatinib) [µM],AUC (SB590885),IC50 (SB590885) [µM]
"8-MG-BA (glioma, adherent)",0.983,> 2,0.983,> 10,0.982,> 2,0.979,> 5
"697 (lymphoblastic leukaemia, suspension)",0.88,1.38,0.882,6.99,0.989,> 2,0.969,> 5
"A3-KAW (B-cell lymphoma, suspension)",0.993,> 2,0.993,> 10,0.991,> 2,0.992,> 5
"A4-Fuk (B-cell lymphoma, suspension)",0.737,0.614,0.981,> 10,0.957,> 2,0.986,> 5
"A101D (melanoma, adherent)",0.892,> 2,0.806,6.54,0.942,> 2,0.683,1.15
"A253 (head and neck, adherent)",0.989,> 2,0.985,> 10,0.813,1.04,0.989,> 5
"A388 (skin, adherent)",0.984,> 2,0.97,> 10,0.749,0.734,0.961,> 5
"ALL-PO (lymphoblastic leukaemia, suspension)",0.897,> 2,0.933,> 10,0.971,> 2,0.947,> 5
"ALL-SIL (T-cell leukaemia, suspension)",0.978,> 2,0.985,> 10,0.989,> 2,0.987,> 5
"AM-38 (glioma, semi-adherent)",0.984,> 2,0.985,> 10,0.988,> 2,0.988,> 5
"AMO-1 (haematopoietic neoplasm, suspension)",0.989,> 2,0.991,> 10,0.985,> 2,0.991,> 5
"BB65-RCC (kidney, adherent)",–,–,0.916,> 10,0.937,> 2,–,–
"BC-3 (B-cell lymphoma, suspension)",–,–,0.939,> 10,0.981,> 2,–,–
"COLO-829 (melanoma, adherent)",–,–,0.821,9.91,0.975,> 2,–,–
"D-336MG (glioma, adherent)",0.908,> 2,–,–,0.922,> 2,–,–
"ECC12 (stomach, suspension)",–,–,0.974,> 10,0.478,0.107,–,–
"EHEB (lymphoid neoplasm, suspension)",0.95,> 2,–,–,0.968,> 2,0.966,> 5
"EW-12 (Ewing sarcoma, suspension)",–,–,0.905,> 10,0.973,> 2,–,–
"EW-22 (Ewing sarcoma, adherent)",0.987,> 2,0.988,> 10,–,–,0.988,> 5
"GAK (melanoma, adherent)",0.979,> 2,0.897,> 10,–,–,0.989,> 5
"HCC1187 (breast, suspension)",0.972,> 2,0.953,> 10,–,–,0.978,> 5
"HCC1500 (breast, adherent)",0.979,> 2,0.976,> 10,–,–,0.978,> 5
"HCC1599 (breast, suspension)",–,–,0.782,4.82,0.975,> 2,–,–
"HCC2218 (breast, suspension)",0.975,> 2,0.975,> 10,–,–,0.976,> 5
"HCC2998 (large intestine, adherent)",–,–,0.97,> 10,0.948,> 2,–,–
"HCC-33 (small cell lung carcinoma, adherent)",–,–,0.987,> 10,0.986,> 2,–,–

Cell Line,AUC (PD-173074),IC50 (PD-173074) [µM],AUC (TGX221),IC50 (TGX221) [µM],AUC (Lapatinib),IC50 (Lapatinib) [µM],AUC (SB590885),IC50 (SB590885) [µM]
"HEL (acute myeloid leukaemia, semi-adherent)",–,–,0.99,> 10,0.992,> 2,–,–
"Hs-445 (Hodgkin lymphoma, suspension)",–,–,0.972,> 10,0.988,> 2,–,–
"IST-MES1 (mesothelioma, adherent)",–,–,0.967,> 10,0.936,> 2,–,–
"JSC-1 (B-cell lymphoma, suspension)",0.981,> 2,–,–,0.987,> 2,0.986,> 5
"K5 (thyroid, adherent)",0.962,> 2,0.972,> 10,0.983,> 2,–,–
"KALS-1 (glioma, adherent)",–,–,0.771,5.33,0.972,> 2,–,–
"KASUMI-1 (acute myeloid leukaemia, suspension)",–,–,0.98,> 10,0.961,> 2,–,–
"KP-N-YS (neuroblastoma, adherent)",–,–,0.981,> 10,0.953,> 2,–,–
"LB2241-RCC (kidney, adherent)",–,–,0.924,> 10,0.755,0.755,–,–
"LS-123 (large intestine, adherent)",–,–,0.936,> 10,0.91,> 2,–,–
"LS-411N (large intestine, adherent)",0.982,> 2,0.843,9.52,–,–,0.897,> 5
"LS-513 (large intestine, adherent)",0.987,> 2,0.987,> 10,–,–,0.987,> 5
"MFM-223 (breast, adherent)",0.631,0.287,0.989,> 10,–,–,0.989,> 5
"MMAC-SF (melanoma, adherent)",0.937,> 2,0.908,> 10,0.976,> 2,–,–
"MOLT-4 (lymphoblastic leukaemia, suspension)",0.914,1.97,0.989,> 10,–,–,0.952,> 5
"MV-4-11 (leukaemia, suspension)",0.906,1.86,0.924,> 10,–,–,0.954,> 5
"MZ2-MEL (melanoma, adherent)",0.978,> 2,0.931,> 10,0.933,> 2,–,–
"NCI-H23 (lung adenocarcinoma, adherent)",0.988,> 2,0.988,> 10,–,–,0.975,> 5
"NCI-H128 (small cell lung carcinoma, suspension)",–,–,0.978,> 10,0.977,> 2,–,–
"NCI-H187 (small cell lung carcinoma, suspension)",0.985,> 2,0.988,> 10,–,–,0.988,> 5
"NCI-H446 (small cell lung carcinoma, semi-adherent)",0.957,> 2,0.981,> 10,–,–,0.985,> 5
"NCI-H716 (large intestine, suspension)",–,–,0.981,> 10,0.965,> 2,–,–
"NCI-H748 (small cell lung carcinoma, suspension)",–,–,0.981,> 10,0.972,> 2,–,–
"NCI-H1581 (large cell lung carcinoma, semi-adherent)",–,–,0.99,> 10,0.99,> 2,–,–
"NCI-H1648 (lung adenocarcinoma, adherent)",0.966,> 2,0.939,> 10,0.293,0.0312,–,–
"NCI-H1666 (lung adenocarcinoma, semi-adherent)",–,–,0.986,> 10,0.987,> 2,–,–

Cell Line,AUC (PD-173074),IC50 (PD-173074) [µM],AUC (TGX221),IC50 (TGX221) [µM],AUC (Lapatinib),IC50 (Lapatinib) [µM],AUC (SB590885),IC50 (SB590885) [µM]
"NCI-H1876 (small cell lung carcinoma, adherent)",0.976,> 2,0.985,> 10,–,–,0.987,> 5
"NCI-H1963 (small cell lung carcinoma, suspension)",–,–,0.991,> 10,0.984,> 2,–,–
"NCI-H1975 (lung adenocarcinoma, adherent)",0.98,> 2,0.97,> 10,–,–,0.983,> 5
"NCI-H2171 (small cell lung carcinoma, suspension)",–,–,0.991,> 10,0.992,> 2,–,–
"NCI-H2196 (small cell lung carcinoma, adherent)",–,–,0.986,> 10,0.986,> 2,–,–
"NK-92MI (lymphoid neoplasm, suspension)",–,–,0.821,5.27,0.987,> 2,–,–
"NTERA-2 cl.D1 (testis, adherent)",–,–,0.907,> 10,0.897,> 2,–,–
"PL-21 (acute myeloid leukaemia, suspension)",–,–,0.933,> 10,0.977,> 2,–,–
"RL95-2 (endometrium, adherent)",–,–,0.925,> 10,0.853,1.54,–,–
"SCC-3 (B-cell lymphoma, suspension)",–,–,0.992,> 10,0.991,> 2,–,–
"SCC-15 (head and neck, adherent)",0.959,> 2,0.979,> 10,–,–,0.952,> 5
"SIG-M5 (acute myeloid leukaemia, suspension)",–,–,0.986,> 10,0.994,> 2,–,–
"SK-MEL-2 (melanoma, adherent)",0.986,> 2,0.98,> 10,0.984,> 2,–,–
"SK-N-DZ (neuroblastoma, adherent)",–,–,0.932,> 10,0.978,> 2,–,–
"SK-UT-1 (soft tissue, adherent)",0.923,> 2,0.828,5.42,0.949,> 2,–,–
"SU-DHL-1 (anaplastic large cell lymphoma, suspension)",–,–,0.995,> 10,0.997,> 2,–,–
"SW872 (soft tissue, adherent)",–,–,0.894,> 10,0.981,> 2,–,–
"TALL-1 (T-cell lymphoblastic leukaemia, suspension)",–,–,0.985,> 10,0.988,> 2,–,–
"TC-YIK (cervix, suspension)",0.981,> 2,0.991,> 10,–,–,0.989,> 5
"TE-441-T (rhabdomyosarcoma, adherent)",–,–,0.961,> 10,0.966,> 2,–,–
"THP-1 (acute myeloid leukaemia, suspension)",0.991,> 2,0.985,> 10,–,–,0.991,> 5
"U-87-MG (glioma, adherent)",0.985,> 2,0.94,> 10,–,–,0.983,> 5
"UACC-812 (breast, adherent)",–,–,0.991,> 10,0.933,> 2,–,–
"no-10 (glioma, adherent)",–,–,0.752,3.99,0.956,> 2,–,–
